From PubChem BioAssay AID1030 (National Center for Advancing Translational Sciences (NCATS), 2008)
Among all 220,000 compounds or so, about 16,000 (7.3%) were called active. Inconclusive means that the source gave no clear call. Such entries were picked first, then a sample of the others. Calls come from the whole dose curve; as a rule, active = well fitted inhibition curve with a large enough effect (not every such curve was filed as active); inconclusive = small, poorly fitted or top-dose-only effect, or another doubt; inactive = no such curve, though single readings can be large or run the other way. Potencies beside an inconclusive call are fits to weak or partial responses and may not hold up.

The compounds below were run against Aldehyde dehydrogenase 1A1 (Homo sapiens) (UniProt P00352) (assay: qHTS Assay for Inhibitors of Aldehyde Dehydrogenase 1 (ALDH1A1)). Conditions: Purified ALDH1A1, NADH fluorescence, propionaldehyde substrate; series mostly up to 75.3 µM.
Sequence of UniProt P00352 (P00352 whole entry, looked up): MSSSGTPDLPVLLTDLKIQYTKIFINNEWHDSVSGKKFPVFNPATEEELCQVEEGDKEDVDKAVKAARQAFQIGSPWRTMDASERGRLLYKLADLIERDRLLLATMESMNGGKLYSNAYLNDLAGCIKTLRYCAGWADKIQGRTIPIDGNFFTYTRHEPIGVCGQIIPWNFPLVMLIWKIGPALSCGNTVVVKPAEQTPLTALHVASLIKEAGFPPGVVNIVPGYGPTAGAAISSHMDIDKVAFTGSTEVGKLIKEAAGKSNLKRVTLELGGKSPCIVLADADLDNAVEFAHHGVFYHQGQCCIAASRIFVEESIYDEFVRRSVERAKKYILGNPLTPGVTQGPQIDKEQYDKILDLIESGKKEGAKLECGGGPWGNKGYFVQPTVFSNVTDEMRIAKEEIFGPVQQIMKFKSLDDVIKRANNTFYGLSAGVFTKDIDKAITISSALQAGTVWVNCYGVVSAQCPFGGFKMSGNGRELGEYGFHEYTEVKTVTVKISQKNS
Potency is the fitted concentration of half-maximal effect; tags give direction and shape of the fitted curve.

Potency, active:
COc1ccc(-c2cc(C(=O)NN)[nH]n2)cc1 20 µM
COc1ccc(NS(=O)(=O)c2ccc(S(=O)(=O)N3CCOCC3)cc2)cc1 1.41 µM
CSCC[C@@H](Nc1nc(-c2ccccc2)nc2c1oc1ccccc12)C(=O)O 11.2 µM
C/C(Cl)=C\Cn1c(O)c(N=NC(N)=S)c2ccccc21 1 µM
CC(C)c1ccc(NC(=O)CCCN2C(=S)NC(C)(C)CC2C)cc1 (stereo unspecified) 5.01 µM
Clc1ccc(-c2ccc(C=Nc3ccc(N4CCOCC4)cc3)o2)cc1 3.55 µM

Potency, inconclusive:
O=C1CCSc2ccc(Cl)cc2N1Cc1cccc(Cl)c1 28.2 µM [inhibitor, single point]
C=CCn1cccc(/C=C/C(=O)c2ccc(C(C)(C)C)cc2)c1=S 25.1 µM [inhibitor, single point]
COc1cc(/C=C(\C#N)C(=O)Nc2ccc3ccccc3c2)c([N+](=O)[O-])cc1OC 17.8 µM [inhibitor, partial curve]
O=C(Nc1nnc(CCc2ccccc2)s1)c1ccco1 28.2 µM [inhibitor, partial curve]
CCC1Oc2ccc(C)cc2N(CC(=O)N(Cc2ccc3c(c2)OCO3)CC2CCCO2)C1=O (stereo unspecified) 39.8 µM [inhibitor, single point]
CC(C)C(C(=O)OCC(=O)c1cccc([N+](=O)[O-])c1)N1C(=O)[C@@H]2[C@H]3CC[C@H](C3)[C@@H]2C1=O (stereo partly specified) 28.2 µM [inhibitor, partial curve]
CC(=O)c1ccc(NC(=O)C(C)N(C)CC(=O)Nc2ccccc2Cl)cc1 (stereo unspecified) 39.8 µM [inhibitor, single point]
C=CCNc1nc(N)c(C(=C(C#N)C#N)c2ccccc2)s1 31.6 µM [inhibitor, partial curve]
COc1ccc(NC(=S)Nc2cc(S(=O)(=O)N3CCCCC3)ccc2OC)cc1 28.2 µM [inhibitor, single point]
O=C(Nc1ccccc1)NC1CS(=O)(=O)CC1O (stereo unspecified) 8.91 µM [inhibitor, single point]
O=C(CSc1nnc(CCCO)n1-c1ccccc1)NCCc1ccccc1 20 µM [inhibitor, partial curve]
CCCCOC(=O)c1cc(=O)[nH]c2ccccc12 35.5 µM [inhibitor, single point]
O=C(CN(CCO)c1ccccc1)Nc1cccc(S(=O)(=O)N2CCCC2)c1 37.7 µM [inhibitor, single point]
O=C(CSc1cn(CCNC(=O)c2ccccc2)c2ccccc12)NCc1ccco1 25.1 µM [inhibitor, single point]
CC(=O)N1N=C(c2cccc([N+](=O)[O-])c2)OC1c1ccccc1Cl (stereo unspecified) 39.8 µM [inhibitor, single point]
Cc1ccccc1NC(=O)COC(=O)CCSc1ccccc1 39.8 µM [inhibitor, single point]
COC(=O)c1ccc(NC(=O)C(OC)c2ccccc2)cc1 (stereo unspecified) 39.8 µM [inhibitor, single point]
COc1ccc2c(c1)c(=O)oc1cc(OCC(=O)N3CCCC(C)C3)ccc12 (stereo unspecified) 25.1 µM [inhibitor, partial curve]
N#C/C(=C\c1ccc(O)c(O)c1)C(=O)NCCCCc1ccccc1 8.91 µM [inhibitor, partial curve]
Cc1ccc(NC(=S)Nc2ccc(Cl)c(Cl)c2)c(OC(F)F)c1 25.1 µM [inhibitor, single point]
COc1ccc(C(=O)NNC(=O)c2cccc(F)c2)cc1 39.8 µM [inhibitor, single point]
CN(C)C(=O)COc1ccc2ccc(=O)oc2c1 28.2 µM [inhibitor, single point]
COc1cc(C2CC(=O)Nc3ccccc3S2)cc(OC)c1OC (stereo unspecified) 39.8 µM [inhibitor, single point]
C/C(=N\NC(=O)c1c(Cl)c(C)nn1C)c1ccc(NC(=O)c2ccncc2)cc1 39.8 µM [inhibitor, single point]
CCc1ccc(NC(=O)CSc2nnc(-c3cccs3)n2CC)cc1 39.8 µM [inhibitor, single point]
CCN(CC)CCNC(=O)CCc1nn(C)c(=O)c2ccccc12 39.8 µM [inhibitor, single point]
Cc1ccc(-n2c(SCC(=O)NCc3ccco3)nc3c(sc4ccccc43)c2=O)cc1 31.6 µM [inhibitor, partial curve]

Potency, inactive:
CSc1ccc(Cl)c(C(=O)Nc2ccc(C)cn2)c1
CS(=O)(=O)N1CCc2cc(C(=O)N3CCCCC3)ccc21
O=C(NC1=NCCS1)c1ccccc1OCc1ccc(F)cc1
COC(=O)c1ccc(C(NC(=O)OCc2ccccc2)/C(=C/[C@@H](C)C(=O)NCc2ccccc2)c2cccnc2)cc1 (stereo partly specified)
Cc1nnc(SCC(=O)NC(=O)NCc2ccco2)n1Cc1ccccc1
CCOC(=S)SCC(=O)N1CCc2cc(OC)c(OC)cc2C1C1C(=O)CC(C)(C)CC1=O (stereo unspecified)
CC12CCC(C(=O)NCc3ccccc3)(OC1=O)C2(C)C (stereo unspecified)
FC(F)(F)c1cnc2c(-c3ccccc3)n[nH]c2c1
CC1SC(c2ccc(F)cc2)NC1=O (stereo unspecified)
C=CCC(C)(NCc1ccccc1)c1ccc(C)cc1 (stereo unspecified)
Fc1ccc(CSc2nnc(-c3cccs3)o2)cc1
COc1ccccc1CNC(=O)CCCc1ccccc1
CC(C)C[C@@H](CC(=O)N[C@@H](CCCN)CC(=O)N[C@@H]1CCCC[C@H]1C(=O)N[C@H](CC(=O)N[C@@H](CCC(=O)O)CC(=O)O)Cc1c[nH]c2ccccc12)NC(=O)[C@@H]1CNCC[C@H]1N
